Source: PMC4336329 (PLoS ONE, 2015)
Screen size: about 310,000 compounds; about 2,200 (0.71%) showed an effect of 50% or more. The effect is printed as a negative number. This is one part of the list.

The compounds below were run against human ether-à-go-go-related gene (hERG) potassium channel (human, UniProt Q12809) (assay: primary screen, population patch clamp on CHO cells stably expressing hERG).
Sequence of human ether-à-go-go-related gene (hERG) potassium channel (Q12809 whole entry, looked up): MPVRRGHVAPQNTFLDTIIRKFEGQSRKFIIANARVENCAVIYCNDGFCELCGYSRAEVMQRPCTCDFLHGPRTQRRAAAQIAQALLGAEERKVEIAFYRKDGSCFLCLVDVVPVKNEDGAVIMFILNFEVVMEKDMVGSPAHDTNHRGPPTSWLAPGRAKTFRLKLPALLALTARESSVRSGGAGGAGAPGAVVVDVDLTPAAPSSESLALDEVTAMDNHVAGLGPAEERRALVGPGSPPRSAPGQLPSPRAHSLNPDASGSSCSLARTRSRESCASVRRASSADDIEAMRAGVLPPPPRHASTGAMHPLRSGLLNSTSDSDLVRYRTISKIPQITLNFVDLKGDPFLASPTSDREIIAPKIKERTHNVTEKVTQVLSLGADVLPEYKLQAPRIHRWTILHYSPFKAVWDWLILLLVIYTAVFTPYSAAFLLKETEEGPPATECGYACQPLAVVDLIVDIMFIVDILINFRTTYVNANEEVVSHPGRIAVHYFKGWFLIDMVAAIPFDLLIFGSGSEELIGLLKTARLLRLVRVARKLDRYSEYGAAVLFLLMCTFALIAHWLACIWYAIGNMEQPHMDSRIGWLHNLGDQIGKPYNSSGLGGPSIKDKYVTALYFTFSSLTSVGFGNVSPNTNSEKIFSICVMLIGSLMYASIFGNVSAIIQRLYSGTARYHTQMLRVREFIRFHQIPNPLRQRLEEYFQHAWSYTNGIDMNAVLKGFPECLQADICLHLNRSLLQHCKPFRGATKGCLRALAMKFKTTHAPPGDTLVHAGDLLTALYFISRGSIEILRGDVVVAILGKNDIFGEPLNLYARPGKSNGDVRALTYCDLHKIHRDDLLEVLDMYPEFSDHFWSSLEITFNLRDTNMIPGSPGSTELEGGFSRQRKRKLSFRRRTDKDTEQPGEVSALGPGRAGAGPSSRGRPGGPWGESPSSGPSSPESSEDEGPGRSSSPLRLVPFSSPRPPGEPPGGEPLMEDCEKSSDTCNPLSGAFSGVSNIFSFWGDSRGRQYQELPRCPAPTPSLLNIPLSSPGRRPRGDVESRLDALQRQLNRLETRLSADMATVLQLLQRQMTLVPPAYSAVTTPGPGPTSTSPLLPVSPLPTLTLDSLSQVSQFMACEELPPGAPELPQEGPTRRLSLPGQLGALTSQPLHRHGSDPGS

Structure (SMILES) | hERG current change (%, negative = inhibition) at 1uM [%]
CCc1ccc(NC(=O)[C@H](Cc2ccccc2)NC(=O)C2CCN(C(=O)[C@@H](N)CC(C)C)CC2)cc1 | 0.234
CCc1ccc(C(=O)COC(=O)c2cccs2)cc1 | 10.1
COc1ccc(C(=O)NCc2nnc(SCC(=O)Nc3cccc(OC)c3)o2)cc1 | 7.96
O=C(CCN1C(=O)/C(=C/c2ccccc2Cl)SC1=S)NN1CCOCC1 | 5.74
O=C(O)CSc1cccc[n+]1[O-] | -2.25
C/C(=N\NC(=O)c1c(Br)c(C)nn1C)c1ccc(NC(=O)C(C)Oc2ccc(Cl)cc2C)cc1 (centres unmarked) | 5.27
CN(CC(=O)N1CCCCCC1)S(=O)(=O)c1ccc(Br)s1 | 0.744
CCn1c(=NC(=O)c2ccc(S(=O)(=O)N3CCOCC3)cc2)sc2cccc(OC)c21 | 7.72
CCC(C)NS(=O)(=O)c1ccc(OCC(=O)N2CCC(C)CC2)cc1 (centres unmarked) | 12.3
COC(=O)CCC(=O)OC1(C)C(=O)C2=CN(CCCOC(C)C)C(c3ccc(OC)cc3)=CC2=C(Br)C1=O (centres unmarked) | 6.32
COc1ccc2nc(NC(=O)CS(=O)(=O)Cc3ccccc3)sc2c1 | 1.1
Cc1ccccc1N1CCN(Cc2nc(Cc3ccccc3)no2)CC1 | 8.68
Cc1ccc2nc(C)c3c(c2c1)OC(C(C)(Cl)Br)C3 (centres unmarked) | 6.44
CCOC(=O)c1cc2c(C)nn(-c3ccccc3)c2s1 | -0.451
CCOC(=O)c1sc(NC(=O)c2ccccc2OC)nc1C | 18.7
CC12C=CC3(O1)C(C(=O)N1CCCOC13)C2C(=O)O (centres unmarked) | 10.9
CCc1ccc(N(C(=O)c2snc(C(N)=O)c2N)C(C(=O)NC2CCCC2)c2ccncc2)cc1 (centres unmarked) | 10.8
O=C(O)c1ccc(CSc2nc3ccc(N4C(=O)C5C6C=CC(C6)C5C4=O)cc3s2)cc1 (centres unmarked) | -36.1
OC(CSc1ccccc1Cl)CN1CCN(c2ccccc2F)CC1 (centres unmarked) | 1.43
Cc1ccc(NC(=O)CSCC(=O)NC2(C)CCS(=O)(=O)C2)cc1 (centres unmarked) | 12.9
Cc1cc(-c2ccc(S(=O)(=O)N3CCN(c4ccccc4F)CC3)s2)on1 | 9.19
O=C(NC(=S)Nc1ccc2oc(-c3ccncc3)nc2c1)c1ccccc1F | 11.5
NNC(=O)Cn1c(COc2ccc(Cl)cc2)nc2ccccc21 | 4.77

Structure (SMILES) | hERG current change (%, negative = inhibition) at 1uM [%]
CCCC1(C(=O)O)NC(c2cccc(OC)c2O)C2C(=O)N(c3ccccc3)C(=O)C21 (centres unmarked) | 3.47
Cc1ccc(NC(=O)COc2ccc(Br)cn2)cc1 | 8.55
Cc1oc(-c2ccccc2)nc1CN1C(=O)C(C)N=C(c2ccccc2F)c2cc(Cl)ccc21 (centres unmarked) | -0.714
O=C(NCC1CCCO1)C1c2ccccc2C(=O)N1C1CCCCCC1 (centres unmarked) | -12.5
O=C(NCC1CCCO1)c1onc(CSc2ccc(Cl)cc2)c1C(=O)O (centres unmarked) | 14.7
Cc1cccc(NC(=O)c2cc(C)nc3ccccc23)c1 | 17.4
CCCOc1ccccc1N1C(=O)CC(N(O)c2ccccc2)C1=O (centres unmarked) | 6.89
COc1ccc(F)cc1CN1CCN(CC(=O)N2CCc3ccccc32)CC1 | 0.281
O=C(NCCCN1CCCC1=O)c1ccc(S(=O)(=O)Nc2ccccc2)cc1 | 10.6
CCS(=O)(=O)N1Cc2ccccc2CC1C(=O)Nc1ccc(OC)cc1 (centres unmarked) | 10
Cn1c(=O)c2c(ncn2C)n(C)c1=O | 11.7
Cc1c(C(=O)N2CCN(C)CC2)oc2c1C(=O)CC(C)(C)C2 | 8.64
Cc1cc(OCc2cc(C(=O)NCc3cc(C(C)C)no3)no2)cc(C)c1Cl | 8.22
COC(=O)c1cc(C)sc1NC(=O)C1CC(=O)NN1Cc1ccccc1 (centres unmarked) | 13.9
CC(=O)NN1C(=O)c2ccccc2NC1c1ccoc1 (centres unmarked) | 15.4
N#CC1=C(N)Oc2cc(O)ccc2C1C1CCCCC1 (centres unmarked) | 10.5
COc1ccc(N(CC(=O)N2CCCCC2)S(=O)(=O)c2ccccc2)c(OC)c1 | 10.6
CSc1cccc(NC(=O)CN(C)S(=O)(=O)c2ccc(C)cc2)c1 | 3.07
COc1cc(C(CCN2CCCC(C)C2)c2c(OC)cc(OC)c3c(-c4ccccc4)cc(=O)oc23)cc(OC)c1OC (centres unmarked) | 3.69
Cc1ccc(S(=O)(=O)N2CCOC2CNC(=O)C(=O)NCCc2c[nH]c3ccccc23)cc1 (centres unmarked) | 6.84
CCOC(=O)c1sc(=NC(=O)c2ccc(F)cc2)n(C)c1C | 14
CCC1NC(=S)N(C2CCCCC2)C1=O (centres unmarked) | 3.79
Cc1cc(=S)cc(C)n1CCCn1ccnc1 | 1.77

Structure (SMILES) | hERG current change (%, negative = inhibition) at 1uM [%]
O=C1c2ccccc2CN1C(CO)c1ccccc1 (centres unmarked) | 10.8
CC(=O)N1CCN(c2ccc(NC(=O)c3ccc(F)cc3)cc2)CC1 | 4.5
Cc1ccc2nc(/C(C#N)=C\c3ccc(N4CCCCC4)c([N+](=O)[O-])c3)[nH]c2c1 | 8.84
O=C(O)CSCc1ccc(C(=O)O)o1 | 18.4
COc1cc(OC)c2c(c1)C(=O)c1cc(OC)cc(OC)c1C2=O | 9.08
Cc1cc(C(=O)CN2CCCCC2)c(C)n1-c1ccc(F)cc1 | 5.63
CC1(C)C(=O)Nc2ccccc2N1C(=O)COc1ncnc2ccccc12 | 6.74
Fc1ccc(NC(=S)NNc2ncc(C(F)(F)F)cc2Cl)c(F)c1 | 6
O=C(Nc1nnc(Cc2ccc([N+](=O)[O-])cc2)s1)c1ccc2c(c1)OCO2 | 6.34
CN(C)C(=O)c1cnc(-c2ccccc2)nc1-c1ccccc1 | 16.9
CCCCCOC(=O)C(C)c1c(C)[nH]c(=S)[nH]c1=O (centres unmarked) | 8.79
CCOC(=O)c1ccc(NC2c3ccccc3C(=O)N2c2ccccn2)cc1 (centres unmarked) | 8.98
CCOc1ccc(C2N(c3ccc(F)cc3)C(=O)C3CCCN32)cc1OC (centres unmarked) | -11.5
Cc1cc(Cl)c(S(=O)(=O)Nc2ccc3c(c2)OCCO3)cc1OCC(N)=O | 4.88
O=C1CCC(C(=O)N2CCCCO2)CN1Cc1ccc(Cl)cc1 (centres unmarked) | 17.8
CC(=O)Nc1ccc(C2NC(=S)N(c3ccccc3C(F)(F)F)C(C)=C2C(=O)N2CCOCC2)cc1 (centres unmarked) | 8.49
Cc1cc(C(=O)Cn2nc(C(=O)O)c3ccccc3c2=O)c(C)n1C1CC1 | 8.19
CC(NC(=O)c1cccc(Cl)c1)C1CC2CCC1C2 (centres unmarked) | 12.2
Cn1nnc(NC(=S)NC(=O)c2cccc3c(Cl)cccc23)n1 | 24.1
Cc1ccc(-c2cc(C(=O)Nc3cc(C)on3)c3ccccc3n2)c(C)c1 | 7.18
O=C(c1ccccc1)c1nc[nH]c1C(=O)Nc1ccccc1 | 7.84
CCOC(=O)C1=C(N)c2ccccc2CC1C1CCCC1 (centres unmarked) | 15.7
Cl.NC(N)=NC(N)=NCCc1ccccc1 | 12.9

Structure (SMILES) | hERG current change (%, negative = inhibition) at 1uM [%]
CCCN(CC1CCCO1)C(=O)CCc1nnc(-c2cc(C)on2)o1 (centres unmarked) | 4.79
CCCNC(=O)c1c(N)n(-c2cccc(OC)c2)c2nc3ccccc3nc12 | 3.02
CCOC(=O)CSc1nnc(-c2ccc3ncccc3c2)n1C | -2.83
Cc1ccc(Sc2cc(N3CCOCC3)nc(-c3ccccc3)n2)cc1 | 2.51
Cc1cccc(N2CCN(C(=O)c3cc4n(n3)C(C(F)(F)F)CC(c3ccco3)N4)CC2)c1C (centres unmarked) | 22.5
O=C(CNS(=O)(=O)c1ccc(Br)cc1)N1CCN(c2ccc(F)cc2)CC1 | -4.67
COc1ccc(C(=O)Nc2ccc(NC(=O)C3CC3)nc2)cc1 | 16.2
O=C(NC1CCCc2ccccc21)C1CCN(c2nnc(-n3cccc3)s2)CC1 (centres unmarked) | 2.19
C=CCn1c(C(CCC(C)C)CC(C)(C)O)n[nH]c1=S (centres unmarked) | 13.9
COc1ccc(CCNC(=O)c2ccccc2C(=O)NCCc2ccc(OC)cc2)cc1 | -1.22
Cc1sc2nc(-c3ccccc3)oc(=O)c2c1C | 2.92
Cc1nn(C)c(Cl)c1CN1CCC(CO)(CCOc2ccccc2)CC1 | -12.9
Cc1ccnc(SCCn2c(Br)nc3c2c(=O)[nH]c(=O)n3C)n1 | -0.887
O=C1N=c2ccccc2=C1c1sc(NS(=O)(=O)Cc2ccccc2)nc1O | 15.6
CCOc1ccc(NC(=O)CSc2nnc(-c3ccco3)n2N)cc1 | 14.4
COc1ccc(CCNC(=S)Nc2ccc(OC)cc2)cc1 | 13.5
O=C(c1ccco1)c1cn(CC(=O)N2CCCCCC2)c2ccccc12 | -2.24
COc1ccc(C(=O)NC(=S)SCC(=O)O)cc1 | 15.2
CC(OC(=O)CN1C(=O)NC2(CCCC2)C1=O)c1ccc(F)cc1 (centres unmarked) | -7.02
COc1ccc(N2C(=O)CC(N(Cc3ccc(S(N)(=O)=O)cc3)C(C)=O)C2=O)cc1 (centres unmarked) | 6.65
